Source: PubChem BioAssay AID360 (National Center for Advancing Translational Sciences (NCATS), 2006)
In all, about 48,000 compounds went through this assay and about 550 (1.1%) were called active. Inconclusive results (about 4%) are left out. Rule as the data show it: active = potency below about 15 µM; inconclusive = mostly about 16 µM to 33 µM; inactive = weaker than that. Some of the results follow.

target: Lysosomal acid glucosylceramidase (Homo sapiens) (UniProt P04062); assay: Glucocerebrosidase; conditions: purified enzyme, resorufin glucoside fluorescence (screen aimed at inhibitors), 20 min;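 also: the screen sought inhibitors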
Summary of the method: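 Wild-type enzyme at 0.2 nM final in 50mM citric acid/KH2PO4, 10mM sodium taurocholate, 0.01% tween-20, pH 5.9, with resorufin beta-D-glucopyranoside at 30 uM final. Compounds titrated, 20 min at RT, red fluorescence read; AC50 from titration.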
Potency is read from the fitted curve at half-maximal effect.

Sequence of UniProt P04062 (P04062 whole entry, looked up): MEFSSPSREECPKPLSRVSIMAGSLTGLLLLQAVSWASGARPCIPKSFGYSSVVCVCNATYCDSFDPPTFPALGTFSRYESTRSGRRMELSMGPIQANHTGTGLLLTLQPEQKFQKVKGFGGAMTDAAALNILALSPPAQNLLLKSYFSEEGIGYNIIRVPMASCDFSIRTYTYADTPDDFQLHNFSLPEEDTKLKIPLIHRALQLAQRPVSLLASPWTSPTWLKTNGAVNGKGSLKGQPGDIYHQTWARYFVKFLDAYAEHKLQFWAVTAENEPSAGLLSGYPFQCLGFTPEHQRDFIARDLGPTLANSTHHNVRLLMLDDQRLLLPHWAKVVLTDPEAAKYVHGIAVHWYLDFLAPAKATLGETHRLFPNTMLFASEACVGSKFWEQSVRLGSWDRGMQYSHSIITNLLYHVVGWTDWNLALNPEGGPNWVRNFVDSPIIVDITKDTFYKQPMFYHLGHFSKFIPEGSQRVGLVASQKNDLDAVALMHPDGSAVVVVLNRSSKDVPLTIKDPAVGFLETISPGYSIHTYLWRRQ

Potency, inactive:
CC(C)C1N(c2ccccc2)C(N)=C(C#N)C1(C#N)C#N (stereo not given) > 76.9 µM
CC1(C)Cc2c(c(N3CCCC3)nc3sc4c(N5CCN(CCO)CC5)ncnc4c23)CO1 > 76.9 µM
CC(C)CCNC(=O)C(c1ccco1)N(Cc1ccc(F)cc1)C(=O)c1snc(C(N)=O)c1N (stereo not given)
COC(=O)c1sc(S(=O)(=O)N2CCC(C)CC2)c(C(=O)OC)c1C > 76.9 µM
CC(C)COC(=O)CCn1[nH]c(=O)c2ccccc2c1=O > 76.9 µM
CCOC(=O)CSc1nnc(CNC(=O)c2ccc(OC)cc2OC)n1-c1ccc(OC)cc1 > 76.9 µM
Clc1ccc(OCc2nn3c(-c4ccco4)nnc3s2)c(Cl)c1 > 76.9 µM
COc1cccc(NS(=O)(=O)c2ccc3[nH]cc(C(=O)NCCCOC(C)C)c(=O)c3c2)c1 > 76.9 µM
Cc1cc(=O)[nH]c2c1cnn2Cc1ccccc1 > 76.9 µM
N#CC1=C(N)SC2(CCCCC2)SC1c1ccccc1 (stereo not given) > 76.9 µM
Cc1nc(N2CCOCC2)c2oc3ccccc3c2n1 > 76.9 µM
O=C(CCNS(=O)(=O)c1cccc2nonc12)N1CCN(c2cccc(Cl)c2)CC1 > 76.9 µM
Cc1ccc(NC(=O)NCCc2ccc(S(N)(=O)=O)cc2)cc1 > 76.9 µM
Cc1cc(C)c(C)c(S(=O)(=O)Nc2ccc(O)cc2)c1C
CCCCC(=O)NC1(C(F)(F)F)C(=O)N(Cc2ccco2)C(C)=C1C(=O)OC (stereo not given) > 76.9 µM
O=C(O)CCCC(=O)NCc1ccccn1 > 76.9 µM
Cc1ccc(-c2c3c(=O)n(C)c(=O)n(C)c3c3c(C)cc(C)nn23)cc1 > 76.9 µM
CCN(CC)C(=O)c1ccc(COc2ccccc2Br)o1 > 76.9 µM
O=C(CSc1ccc(Cl)cc1)Nn1cnnc1 > 76.9 µM
COCCn1c(C)cc(C(=O)CSc2ccc(NC(C)=O)cc2)c1C > 76.9 µM
COCCn1c(C)cc(C(=O)CSc2ncnc3sc4c(c23)CCC4)c1C > 76.9 µM
OCCSc1nc(-c2cccnc2)nc2ccccc12 > 76.9 µM
CCOC(=O)C1(CCSC)NC(c2ccco2)C2C(=O)N(CC)C(=O)C21 (stereo not given) > 76.9 µM
CCN(CC)CCCn1c(=S)[nH]c2ccccc2c1=O > 76.9 µM
CCCn1c(SCC(=O)Nc2sc(C)c(C)c2C(=O)OC)nc2c1c(=O)n(C)c(=O)n2C > 76.9 µM
CCOC(=O)c1ccccc1NC(=O)Cn1cnc2c(cnn2-c2ccc(F)cc2)c1=O > 76.9 µM
CC(C)(C)NC(=O)C(OC(=O)Cn1nnc(-c2ccc(F)cc2)n1)c1ccncc1 (stereo not given) > 76.9 µM
Cc1cccc2cc(CN(Cc3nnnn3Cc3ccccc3)C3CCCC3)c(=O)[nH]c12 > 76.9 µM
COC(=O)CSc1nnc(-c2cnccn2)n1C > 76.9 µM
CCOC(=O)C1CCN(C(=O)c2oc3ccc(S(=O)(=O)N4CCCCCC4)cc3c2C)CC1 > 76.9 µM
CCOC(=O)C1=C(C)NC(=O)C(C(N)=O)C1c1ccccc1 (stereo not given) > 76.9 µM
CCCNc1nc2c(c(=O)n(C)c(=O)n2C)n1CCc1ccccc1 > 76.9 µM
COc1ccc2c(c1OC)C(=O)N1c3ccccc3COC21 (stereo not given) > 76.9 µM
CC(/C(O)=C(\C#N)c1nc2ccccc2n1C)N1C(=O)c2ccccc2C1=O (stereo not given) > 76.9 µM
Cc1nc2ccccc2c(=O)n1/N=C/c1cn(-c2ccccc2)nc1-c1cccs1 > 76.9 µM
Cn1c(CCN2CCCCC2)nc2cc(NC(=O)NC3CCCCC3)ccc21 > 76.9 µM
CCn1c(SCC(=O)Nc2cc(C)on2)nnc1-c1ccncc1 > 76.9 µM
Cc1cc2c(cc1C)N(CC(=O)N1CCCC1)C(=O)CC(c1ccccc1)=N2 > 76.9 µM
Cc1[nH]nc2c1C(c1ccc3c(c1)OCO3)C(C#N)=C(N)O2 (stereo not given) > 76.9 µM
CCc1nnc2sc(-c3ccc(NC(=O)c4ccco4)cc3)nn12 > 76.9 µM
O=C(CSc1ncn[nH]1)Nc1ccc(Cl)c(Cl)c1 > 76.9 µM
CC(C)c1c(C#N)c(N)nc(SCC(=O)c2cc3ccccc3oc2=O)c1C#N > 76.9 µM
Cn1c(C(O)c2ccccc2F)nc(Cl)c1Cl (stereo not given) > 76.9 µM
CC1(C)Cc2c(sc3c2c(=N)n(Cc2ccco2)c(=O)n3Cc2ccccc2)CO1 > 76.9 µM
Cc1ccccc1-c1nnc(SCC(=O)Nc2cccc(C)c2C)o1 > 76.9 µM
O=C(c1cc2nc(C3CC3)cc(C(F)(F)F)n2n1)N1CCCC1 > 76.9 µM
FC(F)(F)c1cc(-c2ccco2)nc(N2CCOCC2)n1
Cc1nnc(NC2(C(F)(F)F)C(=O)Nc3c2c(=O)n(C)c(=O)n3C)s1 (stereo not given) > 76.9 µM
NC(=O)c1ccc(-c2ncc(-c3ccccc3)o2)cc1 > 76.9 µM
CCc1ccc(N2CC(C(=O)Nc3nccs3)CC2=O)cc1 (stereo not given) > 76.9 µM
COC(=O)[C@@H](NC(=O)N1CCN(c2cccc(C(F)(F)F)c2)CC1)C(C)C > 76.9 µM
Cc1ccc(CSc2nnc(-c3ccco3)n2N)cc1 > 76.9 µM
Cc1ccc(CN(Cc2cc3cccc(C)c3[nH]c2=O)C(=O)N(C)C)cc1 > 76.9 µM
Cc1cc(NS(=O)(=O)c2ccc(Cl)cc2)nn1CC(=O)NCc1ccco1 > 76.9 µM
C=CCn1c(COc2ccccc2F)nnc1SCC(=O)N1CC(=O)Nc2ccccc21 > 76.9 µM
O=C1CC(Nc2ccc(N3CCOCC3)cc2)C(=O)N1Cc1ccccc1 (stereo not given) > 76.9 µM
Cc1ccc(NC2=NCC(=O)N2Cc2ccc3c(c2)OCO3)c(C)c1 > 76.9 µM
Cc1ccccc1OCCCC(=O)Nc1nccs1 > 76.9 µM
COCCNC(=O)C(c1ccc(O)cc1)N(Cc1ccco1)C(=O)CCC(=O)Nc1nccs1 (stereo not given) > 76.9 µM
Cc1ccc2c(c1)N(CCC(=O)NC1CC1)C(=O)C(C)O2 (stereo not given) > 76.9 µM
COc1cc(Sc2ccc(C)cc2)c(OC)cc1N > 76.9 µM
COc1cccc(C(=O)N2CCN(CCCc3ccccc3)CC2)c1OC > 76.9 µM
Cc1ccc(N)c(C(=O)CCCCC(=O)O)c1 > 76.9 µM
Cn1c(=O)c2cc(NCc3ccccc3)nnc2n(C)c1=O > 76.9 µM
CCCCNC(=O)CC1C(=O)N(Cc2ccccc2)C(C)c2nc3ccccc3n21 (stereo not given) > 76.9 µM
COc1ccccc1C1C=C(c2ccc(Cl)cc2)Nc2nc(NS(C)(=O)=O)nn21 (stereo not given) > 76.9 µM
Cc1cc(N2CCOCC2)c2c(N)c(C)cc(C)c2n1 > 76.9 µM
O=C(NCC1COc2ccccc2O1)C1CCCN(S(=O)(=O)c2cccc3nsnc23)C1 (stereo not given) > 76.9 µM
COc1cccc(Nc2nc(=O)[nH]nc2C)c1 > 76.9 µM
O=C(COc1ccc(F)cc1)NCC1CCCO1 (stereo not given) > 76.9 µM
CCC(C)(C(=O)NC1CCCC1)N(C(=O)CNC(C)=O)c1ccccc1 (stereo not given) > 76.9 µM
Cc1cc(C)nc(-n2nc(C)cc2NC(=O)c2cccc(S(=O)(=O)N(C)C)c2)n1 > 76.9 µM
CC(=O)Nc1ccc2c(c1)nc(CCNC(=O)c1ccccc1)n2C > 76.9 µM
Cc1cc(C)c(S(=O)(=O)Nc2cccnc2)c(C)c1 > 76.9 µM
Cn1c(=O)c2c(ncn2CC(=O)N2CCN(c3ccc(F)cc3)CC2)n(C)c1=O > 76.9 µM
Cc1nc(SCC(=O)Nc2ccc(C)c(F)c2)c2oc3ccccc3c2n1 > 76.9 µM
COc1ccc2c3c(c(=O)oc2c1OCC(N)=O)CCCC3 > 76.9 µM
CCOC(=O)c1c(/N=C/N(C)C)sc(C(=O)OC)c1C > 76.9 µM
CC(C)(C)NC(=O)COC(=O)c1snc(C(=O)NC2CCCCC2)c1N > 76.9 µM
COc1c(O)cccc1-c1nnn(CCC(=O)OCC(=O)c2ccccc2)n1 > 76.9 µM
COc1ccc2cc(CCNC(=O)C3CC3)c(=O)[nH]c2c1 > 76.9 µM
COc1cc(CNc2ccc(N3CCOCC3)c(C(=O)O)c2)ccc1OCC(N)=O > 76.9 µM
O=C(Cn1cnc2c(nnn2Cc2ccc(F)cc2)c1=O)NCc1ccco1 > 76.9 µM
CC(C)OCCCNC(=O)c1ccc(N(C)S(C)(=O)=O)cc1 > 76.9 µM
O=C(NC1CCCCC1)C(c1ccc(Cl)cc1)N(C(=O)c1cnccn1)c1ccc2c(c1)OCO2 (stereo not given) > 76.9 µM
Cn1nnc2cc(C(=O)NC(C)(C)C)ccc21 > 76.9 µM
O=C(NCCCN1CCOCC1)c1cc2ccccc2oc1=O > 76.9 µM
Cc1ccc2c(c1)c(C)c(C)n2CC(O)Cn1nc(C)cc1C (stereo not given) > 76.9 µM
O=S(=O)(c1ccc(N2CC=C(c3ccccc3)CC2)nc1)N1CCCC1 > 76.9 µM
Cc1cc2ccc(C)c(C)c2nc1SCC#N > 76.9 µM
